In PMC6451091:
The list shows a part of the results. For some assays here: At the low end of the ranking the order means little. For some assays here: The protein was read in a cell extract, so binding may be indirect.

molecular target: PU.1 (IVT) (UniProt P17947); assay: protein-binding microarray (PBM); settings: 20 mM HEPES pH 7.9, 100 mM NaCl, 1 mM DTT, 0.2 mg/mL BSA, 0.02% Triton X-100, 2% milk, 0.4 mg/mL salmon testes DNA; 1 h; temperature not stated; high values mean tight binding; double strand, one strand shown; sequences stand for … in GCCTAGCAC…GTGCTAGGTCTTGATTCGCTTGACGCTGCTG

Sequence	binding signal [z-score]
AGGGGAGAGAAGTGAAAGTG	0.354
CTGGGTGGGAAGTGAAAGTA	2.15
GCCTTGGGGAAGTGAAACTT	3.47
AAAAAAAGGAAATGAAGGTA	3.57
CTGCCTGGGAAGTGAAAGCA	1.39
CTGGCAGGGAACTGAAACGC	1.03
TGAAACAGGTAGTGAAACCA	0.968
GAAAGAGGGAAGTGAAAGTC	5.25
TGAGAGGAGATGTGAAACCT	-0.334
CTGACAGGGAAGTGAAAGCA	2.58
CTGCCAGGGAAGTGAATGCA	1.12
TAAAGGAGGAACTGAAACCA	3.43
AAAACAAGGAAATGAAAGTA	2.07
AAAAAGAGGAAGAGAAACTT	6.04
AGAAACAGGAAGAGAAACTA	3.84
TGAGAGGAGAAGTGAAGCCT	1.17
AAAATGAGGAAGAGAAACTG	4.78
GGAAAGAGGAAGAGAAACTG	4.4
CTGCCAGGAAAGTGAAAGCA	-0.646
TGAACCAGGAAGTGAAACCA	3.67

Sequence	binding signal [z-score]
CAAAAGAGGAAGAGAAACTG	4.72
CTGCCAAGGAAGTGAAAGCA	1
TGGCAGAGGAAGTGGAACTA	3.96
TGAAACAGGAAGGGAAACCA	2.5
AAAAAAAGGAAATGATAGTA	3.36
GATAAGAGGAACAGAAAGCT	2.37
GAAAAGAGGATGTGAAACTT	3.95
TGAAACAGGAAGTGAAACCG	7.08
TGGCAGAGGAAGTGAAACAA	2.98
TAACGGAGGAACTGAAACCA	0.988
TAAAGGAGGAGCTGAAACCA	-0.546
CTGCCAGGTAAGTGAAAGCA	-0.606
GATAAGAGGAGCTGAAAGCT	0.24
GATAAGACGAACTGAAAGCT	-0.182
AAAAAAGGGAAATGAAAGTA	4.95
TAAAGGAGGAACTGAAACCT	3.48
GAAAAGAGGAACAGAAACTA	4.92
TCAACATGGAAGTGAAAGTC	1.82
TAAAGGAGGAACTGGAACCA	3.36
AAAAAGCAGAAGTGAAACTT	6.89

molecular target: T1, FLI1 (endogenous, THP-1 nuclear extract) (UniProt Q01543); assay: nuclear extract protein-binding microarray (nextPBM); settings: 20 mM HEPES pH 7.9, 100 mM NaCl, 1 mM DTT, 0.2 mg/mL BSA, 0.02% Triton X-100, 2% milk, 0.4 mg/mL salmon testes DNA; 1 h; temperature not stated; high values mean tight binding; double strand, one strand shown; sequences stand for … in GCCTAGCAC…GTGCTAGGTCTTGATTCGCTTGACGCTGCTG
T1 sequence: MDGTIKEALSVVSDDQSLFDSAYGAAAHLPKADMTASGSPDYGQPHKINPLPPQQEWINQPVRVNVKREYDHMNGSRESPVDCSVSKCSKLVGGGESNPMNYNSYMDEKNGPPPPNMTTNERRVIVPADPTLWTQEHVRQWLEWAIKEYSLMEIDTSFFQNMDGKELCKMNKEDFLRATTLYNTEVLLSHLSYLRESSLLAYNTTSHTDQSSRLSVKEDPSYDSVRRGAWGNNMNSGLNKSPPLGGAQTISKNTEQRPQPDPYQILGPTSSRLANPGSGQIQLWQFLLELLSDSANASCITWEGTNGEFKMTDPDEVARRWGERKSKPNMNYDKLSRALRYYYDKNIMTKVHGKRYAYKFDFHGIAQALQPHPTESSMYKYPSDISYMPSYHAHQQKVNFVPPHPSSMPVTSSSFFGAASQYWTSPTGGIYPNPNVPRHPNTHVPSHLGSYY

Sequence	binding signal [z-score]
AGGGGAGAGAAGTGAAAGTG	0.389
CTGGGTGGGAAGTGAAAGTA	1.26
GCCTTGGGGAAGTGAAACTT	2.41
AAAAAAAGGAAATGAAGGTA	2.42
CTGCCTGGGAAGTGAAAGCA	0.745
CTGGCAGGGAACTGAAACGC	0.242
TGAAACAGGTAGTGAAACCA	1.09
GAAAGAGGGAAGTGAAAGTC	2.54
TGAGAGGAGATGTGAAACCT	0.123
CTGACAGGGAAGTGAAAGCA	1.3
CTGCCAGGGAAGTGAATGCA	0.523
TAAAGGAGGAACTGAAACCA	2.52
AAAACAAGGAAATGAAAGTA	1.84
AAAAAGAGGAAGAGAAACTT	2.83
AGAAACAGGAAGAGAAACTA	3.1
TGAGAGGAGAAGTGAAGCCT	0.22
AAAATGAGGAAGAGAAACTG	1.82
GGAAAGAGGAAGAGAAACTG	1.98
CTGCCAGGAAAGTGAAAGCA	0.746
TGAACCAGGAAGTGAAACCA	3.9

Sequence	binding signal [z-score]
CAAAAGAGGAAGAGAAACTG	2.24
CTGCCAAGGAAGTGAAAGCA	1.44
TGGCAGAGGAAGTGGAACTA	2.86
TGAAACAGGAAGGGAAACCA	2.86
AAAAAAAGGAAATGATAGTA	2.17
GATAAGAGGAACAGAAAGCT	0.0235
GAAAAGAGGATGTGAAACTT	3.02
TGAAACAGGAAGTGAAACCG	5.87
TGGCAGAGGAAGTGAAACAA	2.71
TAACGGAGGAACTGAAACCA	0.531
TAAAGGAGGAGCTGAAACCA	-0.601
CTGCCAGGTAAGTGAAAGCA	-0.253
GATAAGAGGAGCTGAAAGCT	-0.348
GATAAGACGAACTGAAAGCT	-0.683
AAAAAAGGGAAATGAAAGTA	2.74
TAAAGGAGGAACTGAAACCT	2.04
GAAAAGAGGAACAGAAACTA	3.06
TCAACATGGAAGTGAAAGTC	1.23
TAAAGGAGGAACTGGAACCA	1.17
AAAAAGCAGAAGTGAAACTT	3.56
